Experimental data from publication PMC4336329 (PLoS ONE, 2015).
The campaign covered roughly 310,000 compounds. About 14,000 (4.5%) showed an effect of 50% or more. Effects have a minus sign here. The list shows a part of the results.

biological target: human ether-à-go-go-related gene (hERG) potassium channel (human, UniProt Q12809); assay: primary screen, population patch clamp on CHO cells stably expressing hERG
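Also: peak tail current of the secondary pulse compared with the same well before compound.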

Chain of human ether-à-go-go-related gene (hERG) potassium channel (Q12809 whole entry, looked up): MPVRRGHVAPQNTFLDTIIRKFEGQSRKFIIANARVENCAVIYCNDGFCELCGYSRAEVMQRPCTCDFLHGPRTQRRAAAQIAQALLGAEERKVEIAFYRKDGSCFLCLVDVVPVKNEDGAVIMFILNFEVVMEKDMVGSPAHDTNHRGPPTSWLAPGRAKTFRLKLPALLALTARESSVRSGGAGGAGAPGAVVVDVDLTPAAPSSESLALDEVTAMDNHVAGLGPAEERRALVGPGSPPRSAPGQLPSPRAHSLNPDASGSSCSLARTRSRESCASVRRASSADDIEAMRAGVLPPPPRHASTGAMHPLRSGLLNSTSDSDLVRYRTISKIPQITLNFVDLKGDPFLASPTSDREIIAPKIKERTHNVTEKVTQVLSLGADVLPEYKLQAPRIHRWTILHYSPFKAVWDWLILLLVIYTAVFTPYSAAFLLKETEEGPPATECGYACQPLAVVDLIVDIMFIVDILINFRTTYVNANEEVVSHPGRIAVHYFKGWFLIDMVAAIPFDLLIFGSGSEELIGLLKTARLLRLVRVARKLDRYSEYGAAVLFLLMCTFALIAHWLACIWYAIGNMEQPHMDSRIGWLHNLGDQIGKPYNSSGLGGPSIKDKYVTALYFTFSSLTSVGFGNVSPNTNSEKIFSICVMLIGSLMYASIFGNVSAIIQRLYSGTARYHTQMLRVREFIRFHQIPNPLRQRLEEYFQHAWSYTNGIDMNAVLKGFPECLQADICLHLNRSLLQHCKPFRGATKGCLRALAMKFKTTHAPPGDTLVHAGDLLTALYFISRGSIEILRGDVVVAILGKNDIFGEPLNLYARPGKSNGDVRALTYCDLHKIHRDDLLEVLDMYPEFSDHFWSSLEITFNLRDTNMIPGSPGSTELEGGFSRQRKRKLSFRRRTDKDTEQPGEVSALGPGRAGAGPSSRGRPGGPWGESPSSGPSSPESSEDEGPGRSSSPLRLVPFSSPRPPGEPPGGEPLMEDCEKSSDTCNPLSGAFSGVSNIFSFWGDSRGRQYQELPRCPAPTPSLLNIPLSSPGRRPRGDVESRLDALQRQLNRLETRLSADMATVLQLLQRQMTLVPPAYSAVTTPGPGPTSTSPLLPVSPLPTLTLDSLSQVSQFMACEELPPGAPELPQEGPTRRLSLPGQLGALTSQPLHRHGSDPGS

SMILES | hERG current change (%, negative = inhibition) at 10uM
C=CCn1c(SC(C)C(=O)NCc2ccc3c(c2)OCO3)nnc1C1CCCCC1 (centres unmarked) | -11.8%
COC(=O)c1ccccc1-c1cn(C)c2ccccc2c1=O | 15.7%
CC(=O)SCC(C)C(=O)NCc1ccccc1 (centres unmarked) | 22.1%
CCn1c(/N=C/c2c[nH]c3ccccc23)nc2ccccc21 | 8.73%
COc1ccccc1-n1c(COc2ccccc2-c2ccccc2)nnc1SCC(=O)c1c(N)n(C)c(=O)n(C)c1=O | 10.7%
O=[N+]([O-])c1ccccc1S(=O)(=O)Oc1ccc(/C=N/n2cnnc2)cc1 | -40.6%
CC(=O)c1ccc(OCC(=O)OC(C)C(=O)NC2CCCCC2)cc1 (centres unmarked) | -2.93%
O=C(Nc1ccc(C(=O)O)cc1)/C(=C\c1ccccc1)NC(=O)c1ccccc1 | 11.7%
O=C(CSc1nncs1)Nc1nccs1 | 13.1%
CCN(CC)CCCNC(=S)N(CCO)Cc1cc2cc3c(cc2[nH]c1=O)OCCO3 | 12.7%
CC(C)N1C(=O)S/C(=C/c2ccc(Sc3nc4ccccc4[nH]3)o2)C1=O | -0.151%
CC(C)N1CCN(Cc2cc3c(cc2Cl)OCO3)CC1CCO (centres unmarked) | -2.34%
Cc1ccc(NC(=O)c2ccc(Cn3cc(Cl)cn3)o2)c(C)c1 | -13.5%
Cc1ccn2cc(C(=O)NCc3ccco3)nc2c1 | 14.8%
O=C1C=CC(=O)N1c1ccc(N2CCCCC2)cc1 | 5.29%
Cc1cc(Cl)ccc1C(=O)C1CCCN(C(=O)CCn2cncn2)C1 (centres unmarked) | -28.4%
COc1ccc(CN(N=O)C2CC(=O)N(c3ccc(OC)cc3)C2=O)cc1 (centres unmarked) | -1.04%
N#CC[C@H](Cc1ccccc1)N1CCN(CCc2ccccc2)CCC1=O | 16.5%
CCC(C)(C)n1nnnc1C(c1ccc(OC)c(OC)c1)N1CCN(c2cccc(OC)c2)CC1 (centres unmarked) | -8.2%
CC(=O)NC1C(OCCOc2ccc(Cl)cc2C)OC(CO)C(O)C1O (centres unmarked) | 14.4%
COc1ccc(C/C(C)=N/NC(=O)C2COc3ccccc3O2)cc1 (centres unmarked) | 25.7%
CC(C)(C)NC(=O)c1cc(Cl)ccc1[N+](=O)[O-] | -10.5%
C=CCN1C(=O)/C(=C\c2ccc(Oc3nc(N4CCOCC4)nc(N4CCOCC4)n3)c(OC)c2)SC1=S | 15.9%

SMILES | hERG current change (%, negative = inhibition) at 10uM
Cc1cccc(C(=O)Nc2ccc3c(c2)C(=O)N(CC(C)C)C3=O)c1 | 23.1%
O=C(NCc1ccco1)c1cc(-c2ccccc2)nn1CC1CC(c2cccnc2)=NO1 (centres unmarked) | -63.9%
Cc1cc(Cl)ccc1OCCCC(=O)NNC(=O)c1ccncc1 | -30.2%
COc1cc(-c2noc(CCC(=O)NC3CCCC3)n2)cc(OC)c1OC | -3.14%
CCOc1cc2[nH]c(=O)n(CCCC(=O)NCc3ccc(OC)cc3)c(=O)c2cc1OCC | 8.71%
COCCn1c(-c2ccc(Cl)cc2)nc2c(c(=O)c3ccccc3n2C)c1=O | -9.44%
Cc1ccc(C(=O)NCCNc2nc3cc(C)c(C)cc3cc2C)cc1 | -4.44%
CC1(C)CC2(CC(c3ccccc3)c3ccc(O)cc3O2)NC(=S)N1 (centres unmarked) | 16.7%
COc1ccc(N(CC(=O)NC2CCCCC2)C(=O)CNC(=O)c2ccco2)c(OC)c1 | -12%
COc1ccccc1N1CCN(C(=O)CSc2nnc(NC(=O)C3CC3)s2)CC1 | 3.69%
COc1ccc2[nH]c(=O)c(CN(c3ccc(C)c(C)c3)S(C)(=O)=O)cc2c1 | 12.9%
COCCn1c(C)cc(C(=O)CSc2ccc3ccccc3n2)c1C | -0.727%
CCCCC(=O)Nc1c(O)c2ccccc2[nH]c1=O | -0.31%
CCOC(=O)CC1(NC(=O)c2cc(COc3cccc(OC)c3)on2)CCCCC1 | -0.0539%
CC(=O)Nc1ccccc1C(=O)OCc1cccc(F)c1 | 2.12%
Cc1cc(C=O)c(O)cc1O | 9.9%
Nc1nc(SCC(=O)NN(c2ccccc2)c2ccccc2)n[nH]1 | -1.91%
COc1ccccc1Oc1c(C)oc2c(CN(C)C)c(O)ccc2c1=O | -1.06%
CCN1CC=C2C(C#N)=C(N)C(C#N)(C#N)[C@H](c3cccc(OC)c3OC)[C@H]2C1 | -6.54%
CCOc1ccc(N2CC(C(=O)NC(C)C)CC2=O)cc1 (centres unmarked) | 3.39%
O=C(COc1ccc(Cl)cc1Cl)Nc1noc2ccccc12 | 15%
CCOc1ccc2nc(NC(=O)c3cccc(-c4cc5ccccc5oc4=O)c3)sc2c1 | 10%
COC(=O)COn1c(-n2nc(C)cc2C)nc2ccccc2c1=O | 12.6%

SMILES | hERG current change (%, negative = inhibition) at 10uM
O=c1nc(-c2ccccc2Cl)c2cc(F)ccc2[nH]1 | 11.1%
CC(C)C(=O)NC(=S)Nc1ccccc1N1CCN(C(=O)c2ccc(Cl)cc2)CC1 | -3.55%
CN1C(C(=O)N2CCc3ccccc3C2)=CC(c2ccc(F)cc2)=NS1(=O)=O | -3.37%
Nn1c(SCC(=O)Nc2ccccc2F)nc2ccccc2c1=O | 2.62%
CCCc1cc(C(=O)Nc2sc(C)c(CC)c2C#N)no1 | 10.3%
CCCOc1ccc(OCCSc2nnc(N)s2)cc1 | 12.5%
COc1ccc(/C=N/NC(=O)c2ccc(N(C)S(=O)(=O)c3ccccc3)cc2)cc1 | 8.35%
COc1ccccc1CN1CCCC(CN(CCN(C)C)C(=O)C2CCCC2)C1 (centres unmarked) | 8.07%
Oc1c(Br)cc(Br)cc1CNc1ccccn1 | 5.43%
CC(C)N=C1NN=C(c2cccs2)CS1 | 43.4%
CCOC(=O)N1CCN(C(=O)c2ccc(N3CC4CC(C3)c3cccc(=O)n3C4)c(NC(=O)c3ccc(F)cc3)c2)CC1 (centres unmarked) | -5.09%
CS(=O)(=O)c1cnc2c(-c3ccc(F)cc3)cnn2c1N | 0.863%
CCc1nc(NC(=O)Cc2csc(C)n2)sc1C(=O)OC | 2.85%
COC(=O)c1sccc1NC(=O)c1ccc(Cl)s1 | -5.63%
O=C(c1ccccc1)N1CCN(C(=S)NCCc2ccccc2)CC1 | -65.7%
O=C(NC1CCCCC1)C(c1ccc(F)cc1)N(C(=O)c1csnn1)C1CCCC1 (centres unmarked) | -7.88%
Cn1ccnc1SCC(=O)Nc1ccc2c(c1)OCCO2 | 11.4%
COC(=O)c1ccc(OCC(O)CN2C(=O)c3ccccc3C2=O)cc1 (centres unmarked) | 13.6%
COc1ccc(/C=C\C(=O)NCc2ccc3c(c2)cc(C)n3C)cc1OC | 6.06%
O=[N+]([O-])c1cccc(C2=NCCS2)c1 | -21.3%
Cc1nnc(NC(=O)c2ccc(S(=O)(=O)N3CCCCCC3)cc2)o1 | -18.5%
CC(C)C(=O)Nc1ccc(O)c(-c2csc(N)n2)c1 | 15.3%
CCCCOc1cccc(-c2nnc(N)s2)c1 | 1.12%

SMILES | hERG current change (%, negative = inhibition) at 10uM
Cc1ccc(CCNC(=O)CC2Oc3ccc(C)cc3NC2=O)cc1 (centres unmarked) | 5.18%
O=c1c2ccc([N+](=O)[O-])cc2ncn1CCOc1ccc(Cl)cc1 | -37.5%
CCc1sc(C(=O)N2CCN(S(C)(=O)=O)CC2)cc1Br | -10.3%
COc1ccccc1CNC(=O)c1cc(-c2ccccc2)n(Cc2cc(C)no2)n1 | -37.2%
Cc1ccc(-n2ncc3c(SCc4cccc(C)c4)ncnc32)cc1 | 0.386%
O=C(Cn1cnc2ccccc2c1=O)OCC(=O)c1ccc2c(c1)OCCO2 | 12.7%
Br.CCCCn1c(=N)n(CC(=O)c2ccc([N+](=O)[O-])cc2)c2ccccc21 | -71.7%
Cc1cccc[n+]1C1C(c2ccc([N+](=O)[O-])cc2)C(C#N)=C(C(=C=[N-])C#N)NC1(O)C1CC1 (centres unmarked) | -1.81%
COc1cc(OC)cc(C(=O)N2CCN(S(C)(=O)=O)CC2)c1 | 4.56%
Cc1nc2sccc2c(=O)n1N | 20.5%
CCN(CC)C(=O)c1csc(Nc2cccc3ccccc23)n1 | -16.9%
O=C(O)CCC(=O)N1CCc2cc(S(=O)(=O)NCc3cccs3)ccc21 | 8.92%
CCn1c(SCC(=O)OC(C)C)nnc1-c1ccccc1 | 4.81%
O=C(NCc1cc(F)cc(C(F)(F)F)c1)C1CCC(=O)N(C2CCCC2)C1 (centres unmarked) | -14.8%
Cc1nn(-c2ccc(F)cc2)c(C)c1CN1CCN(CCC(C)C)C(CCO)C1 (centres unmarked) | -36.3%
Cc1ccc(NC2=NCC(Cc3ccc(Br)cc3)S2)cc1 (centres unmarked) | 6.97%
COC(=O)CNC(=O)COC(=O)C(Cc1ccccc1)NC(=O)c1ccco1 (centres unmarked) | 17.9%
COc1ccc(CNC(=O)CCCC(=O)n2nc(C)c3ccccc32)cc1 | 3.27%
CC(C)Cc1nc2sc3c(=O)n(N)cnc3c2c2c1COC(C)(C)C2 | 4.29%
C/C(CC(=O)N1CCN(C=O)CC1)=N\NC(=O)c1cccc([N+](=O)[O-])c1 | 24.1%
